Laboratory results reported in PubChem BioAssay AID1460 (National Center for Advancing Translational Sciences (NCATS), 2008).
Screen size: about 270,000 compounds; about 5,800 (2.1%) were called active. Inconclusive results, whose numbers are uncertain, are shown with a selection of clear calls. The call rests on the fitted dose curve; in most records, active means well fitted inhibition curve with a large enough effect; inconclusive means small, poorly fitted or top-dose-only effect; inactive means flat fitted curve, though single readings scatter. A potency beside an inconclusive call is a rough fit, not a confirmed value.
Further: nearly all actives have a fitted effect of over 55% in size.
On the % scale 0 is the no-effect control and ±100 the full control effect; potency means the concentration at half of the fitted maximal effect; tags describe the fitted curve by direction and shape.

The compounds below were run against Microtubule-associated protein tau (Homo sapiens) (UniProt P10636) (assay: qHTS for Inhibitors of Tau Fibril Formation, Thioflavin T Binding). Conditions: recombinant tau K18 P301L (four-repeat tau fragment), heparin-induced fibrillization, ThT fluorescence; series mostly up to 57.4 µM; activity, negative = inhibition: at the top concentration.
Sequence of UniProt P10636 (P10636 whole entry, looked up, the tested form may be a part): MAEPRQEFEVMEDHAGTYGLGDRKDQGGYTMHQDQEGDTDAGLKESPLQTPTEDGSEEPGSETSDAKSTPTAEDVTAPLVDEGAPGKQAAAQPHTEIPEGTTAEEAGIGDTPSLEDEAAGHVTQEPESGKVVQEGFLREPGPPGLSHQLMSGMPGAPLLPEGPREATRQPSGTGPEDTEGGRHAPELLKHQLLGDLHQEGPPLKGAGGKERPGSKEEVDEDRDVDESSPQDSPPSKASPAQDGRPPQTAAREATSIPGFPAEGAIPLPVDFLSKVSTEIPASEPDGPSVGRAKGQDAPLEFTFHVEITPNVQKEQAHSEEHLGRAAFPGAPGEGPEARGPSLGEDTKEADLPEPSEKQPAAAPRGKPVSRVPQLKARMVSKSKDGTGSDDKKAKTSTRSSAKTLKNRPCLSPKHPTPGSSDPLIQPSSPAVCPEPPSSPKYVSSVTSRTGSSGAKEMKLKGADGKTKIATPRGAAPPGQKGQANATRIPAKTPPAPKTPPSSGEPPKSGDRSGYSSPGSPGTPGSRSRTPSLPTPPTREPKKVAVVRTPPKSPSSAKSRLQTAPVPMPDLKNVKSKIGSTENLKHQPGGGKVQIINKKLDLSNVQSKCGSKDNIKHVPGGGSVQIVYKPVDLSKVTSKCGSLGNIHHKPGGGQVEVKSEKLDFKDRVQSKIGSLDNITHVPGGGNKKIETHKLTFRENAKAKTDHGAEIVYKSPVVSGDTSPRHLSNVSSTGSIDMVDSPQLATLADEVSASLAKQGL
In short: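 K18 P301L tau (15 uM + 0.24 uM Alexa 594-tagged), heparin 20 uM, NaOAc pH 7, 6 h 37 C; ThT 30 uM, 1 h RT, ex 450/em 510 nm.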
`S=C(N/N=C1\C2CN3CCN(C2)CC1(c1ccccc1)C3)Nc1ccccc1` was tested, and the “activity, negative = inhibition” value was inactive: 7.42%.
For `CCCCCCC(=O)Nc1cc2nc3c(nc2cc1C)c(=O)n(C)c(=O)n3C`, the Potency was inconclusive: 2 µM [inhibitor, partial curve].
`Cc1ccc(CCNC(=O)C(C)n2nc(C)c3c(C)n(-c4ccc(C)cc4)nc3c2=O)cc1` (stereo not given) was tested, and the “activity, negative = inhibition” value was inactive: 10.4%.
For `CCn1c(=O)c(=O)[nH]c2cc(C(=O)NC3CCCC3)ccc21`, the Potency was inconclusive: 44.7 µM [inhibitor, single point].
With `Cc1cc(/C=C2\SC(=S)N(Cc3ccco3)C2=O)c(C)n1-c1ccccc1` the Potency was inconclusive: 25.1 µM [inhibitor, single point].
In the case of `CCN(CC)C(=S)NC(=O)c1ccc(F)cc1`, the “activity, negative = inhibition” value is reported as inactive: 2.93%.
For `Cn1ncc(N=Cc2ccccc2[N+](=O)[O-])c1C(N)=O`, the Potency was inconclusive: 22.4 µM [inhibitor, partial curve].
`CS(=O)(=O)Nc1ccc(Cc2ccc(NS(C)(=O)=O)cc2)cc1` was tested, and the “activity, negative = inhibition” value was inactive: 8.58%.
In the case of `Cc1cccnc1Nc1nc(-c2ccccn2)cs1`, the Potency is reported as inconclusive: 1.78 µM [inhibitor, full curve].
`Cc1ccccc1OCC(=O)Nc1ccc2[nH]c(=O)sc2c1` was tested, and the Potency was inconclusive: 12.6 µM [inhibitor, partial curve].
`O=C(OCc1nnc(-c2ccc(Cl)cc2)o1)c1ccc(O)cc1` was tested, and the Potency was inconclusive: 15.8 µM [inhibitor, partial curve, poor fit].
For `C/C(=N/NC(=O)c1cc(-c2cccc([N+](=O)[O-])c2)n[nH]1)c1cccc(O)c1`, the Potency was inconclusive: 0.891 µM [inhibitor, full curve].
`CCOc1ccc(S(=O)(=O)N(C)c2ccc(OCC(=O)Nc3ccc4[nH]c(=O)[nH]c4c3)cc2)cc1` was tested, and the Potency was inconclusive: 20 µM [inhibitor, partial curve].
For `CC(C)c1onc(C(=O)NC(C)c2ccccc2)c1[N+](=O)[O-]` (stereo not given), the Potency was inconclusive: 22.4 µM [inhibitor, partial curve].
With `CCN1CCN(Cc2nc3cc(NC(=O)c4cccc([N+](=O)[O-])c4)ccc3n2CC)CC1` the “activity, negative = inhibition” value was inactive: -12.3%.
In the case of `COc1ccc(Nc2cc(C(=O)NCCCN3CCOCC3)c3ccccc3n2)cc1OC`, the Potency is reported as inconclusive: 22.4 µM [inhibitor, partial curve].
For `O=C(CSc1nc(-c2ccco2)nc2cc(=O)[nH]n12)Nc1ccc(F)cc1`, the Potency was inconclusive: 28.2 µM [inhibitor, single point].
In the case of `COc1ccc(OCCCC(=O)Nc2nc(C)c(C(C)=O)s2)cc1`, the Potency is reported as inconclusive: 15.8 µM [inhibitor, partial curve].
For `CCC1=C2CC[C@H]3C(=O)N(c4ccccc4)C(=O)[C@H]3[C@H]2[C@@]2(Cc3ccccc3)C(=NCCOC)OC(=O)N2C1=O`, the “activity, negative = inhibition” value was inactive: -4.51%.
With `CC1CCN(S(=O)(=O)c2ccc3c(ccc(=O)n3CC(=O)NCc3ccccc3)c2)CC1` the “activity, negative = inhibition” value was inactive: 2.52%.
`CC1(C)OC(=O)N(Cc2ccco2)C1(C)O` (stereo not given) was tested, and the Potency was inconclusive: 35.5 µM [inhibitor, single point].
In the case of `COc1ccc(C2=NN(C(=O)c3cccc([N+](=O)[O-])c3)C(c3cccc([N+](=O)[O-])c3)C2)cc1` (stereo not given), the “activity, negative = inhibition” value is reported as inactive: -6.46%.
For `Cc1ccc2nc(COc3ccc(Cl)cc3)cc(=O)n2c1`, the Potency was inconclusive: 1.41 µM [inhibitor, partial curve].
`NC(=S)n1[nH]c(-c2ccc([N+](=O)[O-])cc2)c(N=Nc2ccc(O)cc2)c1=O` was tested, and the Potency was active: 3.16 µM.
`Cc1ccc(COn2c(-c3ccc(Cl)cc3Cl)nc3ncccc32)cc1` was tested, and the “activity, negative = inhibition” value was inactive: -19.3%.
`CCCN1C/C(=C/c2cccc([N+](=O)[O-])c2)C(=O)/C(=C/c2cccc([N+](=O)[O-])c2)C1` was tested, and the Potency was inconclusive: 31.6 µM [inhibitor, partial curve].
`COc1ccc(C2CC(c3ccccc3)=NN2c2ccc(N)cc2)cc1` (stereo not given) was tested, and the Potency was inconclusive: 15.8 µM [inhibitor, partial curve].
`CC(CNc1nc2ccccc2c2nc(-c3ccccc3)nn12)c1ccccc1` (stereo not given) was tested, and the “activity, negative = inhibition” value was inactive: 1.19%.
For `C/C(CCN1CCCc2nc(C)c(C)cc21)=N\OC[C@@H](C)[C@H](OCc1ccccc1)C(C)C`, the activity, negative = inhibition was inactive: -7.2% [at 11.5 µM].
With `CC(=O)n1cc([C@H]2C=C(C(=O)N3CCN(Cc4ccccc4)CC3)O[C@@H](OCCCCO)C2)c2ccccc21` the “activity, negative = inhibition” value was inactive: -13%.
For `COc1ccc(NC(=O)c2cc(=O)c3cc(C)cc(C)c3o2)cc1`, the Potency was inconclusive: 1.78 µM [inhibitor, full curve].
With `Cc1nc2c(-c3ccccc3)c(C)[nH]n2c(=O)c1Cc1ccc(Br)cc1` the “activity, negative = inhibition” value was inactive: -5.28%.
`CCOc1ccc(NC(=S)Nc2cccc3cnccc23)cc1` was tested, and the Potency was inconclusive: 17.8 µM [inhibitor, partial curve].
In the case of `Cc1ccc(OCCOc2cccc(Br)c2)c([N+](=O)[O-])n1`, the Potency is reported as inconclusive: 17.8 µM [inhibitor, partial curve, poor fit].
In the case of `CCN(C(=O)COC(=O)/C=C/c1c(C)nn(Cc2ccc(C)cc2)c1C)C1CCS(=O)(=O)C1` (stereo not given), the “activity, negative = inhibition” value is reported as inactive: -3.44%.
In the case of `CCn1c(-c2nn(-c3ccccc3)ccc2=O)n[nH]c1=S`, the “activity, negative = inhibition” value is reported as inactive: 2.72%.
`Cc1ccc(CNC(=O)c2cc(=O)c3cc(C)c(C)cc3o2)cc1` was tested, and the “activity, negative = inhibition” value was inactive: 10.7%.
`CN(C)/C=C/C(=O)c1nnn(C2CCCCC2)c1NC1CCCCC1` was tested, and the Potency was inconclusive: 15.8 µM [inhibitor, single point].
For `COC(=O)c1c(C)[nH]c(C=O)c1-c1ccccc1`, the “activity, negative = inhibition” value was inactive: -16.3%.
`CC(C)OC(=O)c1cccc(C(=O)Oc2ccc(Br)cc2)n1` was tested, and the Potency was inconclusive: 28.2 µM [inhibitor, single point].
For `Cc1ccc(S(=O)(=O)/N=C(/NC(=S)Nc2cccc(C)c2)c2ccccc2)cc1`, the Potency was inconclusive: 35.5 µM [inhibitor, single point].
With `Cc1c(C(=O)c2ccccc2)c2ccccn2c1CCc1ccccn1` the Potency was inconclusive: 20 µM [inhibitor, single point].
For `CCOc1ccc(NC(c2ccccn2)c2oc(CO)cc(=O)c2O)cc1` (stereo not given), the Potency was inconclusive: 14.1 µM [inhibitor, partial curve].
`Cn1nc(-c2ccccc2)c(N2CCCCC2)cc1=O` was tested, and the “activity, negative = inhibition” value was inactive: -9.94%.
`CC1=C(C(=O)c2ccccc2)C(c2ccc(OC(F)F)cc2)NC(=S)N1` (stereo not given) was tested, and the “activity, negative = inhibition” value was inactive: -0.129%.
